The list shows a part of the results. Sequences were assembled here from the parent chain. Values near 0.05 are background.
B1: TEV protease; numbered along this chain (parent)
chain: MGESLFKGPRDYNPISSSICHLTNESDGHTTSLYGIGFGPFIITNKHLFRRNNGTLVVQSLHGVFKVKDTTTLQQHLVDGRDMIIIRMPKDFPPFPQKLKFREPQREERICLVTTNFQTKSMSSMVSDTSCTFPSGDGIFWKHWIQTKDGQCGSPLVSTRDGFIVGIHSASNFTNTNNYFTSVPKNFMELLTNQEAQQWVSGWRLNADSVLWGGHKVFMVKPEEPFQPVKEATQL

Variants of: B1
Assay: raw area under fraction-flipped curve 0-4 h after induction (AUC4h, not background-subtracted), DNA-recorder readout of cleavage of the substrate (dimensionless); higher = more cleavage of the substrate by the protease variant
Details: temperature: 34 °C; time window: 0-4 h after rhamnose induction
Method: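 In vivo DNA recorder in E. coli TOP10(DE3) ΔrhaA at 34 °C. Each TEVp single-site mutant (parent TEVp 0) is paired with a single-site variant of the 7-mer TEVs (canonical ENLYFQ|S). The substrate sits between flexible linkers in a Bxb1-sfGFP-TEVs-SsrA fusion, so cleavage stabilises Bxb1 and speeds flipping of a recombination array, read by NGS. The value is the raw area under the fraction-flipped curve over 0-4 h after rhamnose induction (AUC4h), with ≥20 reads per time point. It is not background-subtracted; inactive controls average about 0.047.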
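Further: Bxb1 expression induced with 0.2% (w/v) L-rhamnose at OD600 near 0.5, cultures sampled hourly, flipped fraction per protease–substrate barcode pair counted by paired-end Illumina sequencing.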

Variant | area with substrate ENAYFQS | area with substrate ENCYFQS | area with substrate ENDYFQS | area with substrate ENFYFQS | area with substrate ENGYFQS | area with substrate ENMYFQS | area with substrate ENNYFQS | area with substrate ENPYFQS | area with substrate ENQYFQS | area with substrate ENRYFQS | area with substrate ENSYFQS | area with substrate ENVYFQS | area with substrate ENEYFQS | area with substrate ENHYFQS | area with substrate ENIYFQS | area with substrate ENTYFQS | area with substrate ENWYFQS | area with substrate ENYYFQS | area with substrate ENKYFQS
Q59I | 0.0533 | 0.0712 | 0.0541 | 0.0814 | 0.0637 | 0.063 | 0.0332 | 0.0597 | 0.0569 | 0.0603 | 0.0498 | 0.0677 |  |  |  |  |  |  | 
S60K | 0.0576 | 0.0662 | 0.0596 | 0.074 | 0.0575 |  |  | 0.0648 | 0.0768 | 0.0842 | 0.048 | 0.0647 | 0.059 | 0.0524 | 0.0846 | 0.0583 | 0.0424 | 0.0728 | 
L61H | 0.0616 | 0.0713 | 0.0526 | 0.0577 |  |  | 0.0679 | 0.0541 | 0.0615 |  | 0.0654 | 0.0704 | 0.0603 | 0.0622 |  | 0.0602 |  | 0.058 | 0.069
L61W | 0.0609 | 0.149 | 0.0658 | 0.0615 | 0.0657 | 0.0876 |  | 0.028 | 0.0401 | 0.0472 | 0.0669 |  |  | 0.0574 | 0.0975 |  |  |  | 
F65G | 0.0427 |  | 0.0698 | 0.0589 | 0.0527 | 0.0922 |  |  | 0.0666 | 0.0425 | 0.119 |  | 0.0589 | 0.0596 | 0.0913 |  | 0.0451 |  | 0.0302
K66L | 0.0621 |  | 0.0526 | 0.061 | 0.057 | 0.0799 | 0.069 | 0.0639 | 0.0608 | 0.0582 | 0.064 | 0.0971 | 0.0573 | 0.067 | 0.0905 | 0.0675 | 0.0678 |  | 0.0585
D69E | 0.0674 | 0.0551 | 0.0714 | 0.0662 | 0.0585 | 0.0615 | 0.0538 | 0.0518 | 0.063 | 0.0604 | 0.0588 | 0.0907 | 0.0958 |  |  | 0.0556 |  | 0.0567 | 0.0613
T70E | 0.0504 | 0.0465 | 0.0596 | 0.0743 |  | 0.069 |  |  | 0.0503 | 0.0585 | 0.0562 |  | 0.0434 |  | 0.0654 | 0.0509 |  |  | 0.0724
T70I | 0.0541 |  | 0.0606 | 0.0615 | 0.0545 | 0.0802 |  |  | 0.0644 |  | 0.0524 | 0.0591 | 0.0578 | 0.0395 |  | 0.0539 | 0.0529 |  | 0.064
T71E | 0.0626 | 0.0604 | 0.0601 |  | 0.0702 |  | 0.0595 |  | 0.111 | 0.0723 | 0.0667 | 0.0863 | 0.0489 | 0.0501 | 0.0883 |  |  | 0.0787 | 0.0805
L73I | 0.0453 | 0.0852 | 0.0624 |  | 0.0728 |  |  |  | 0.0688 |  | 0.0672 | 0.0759 |  | 0.0435 | 0.103 |  | 0.0567 | 0.0606 | 
Q75F | 0.059 | 0.0647 | 0.0666 | 0.0691 |  |  | 0.0616 | 0.0643 | 0.0573 | 0.0534 | 0.0545 | 0.0678 | 0.0622 | 0.0428 | 0.0967 | 0.0638 |  |  | 
Q75K | 0.0613 |  | 0.0565 | 0.0498 | 0.0747 | 0.0614 | 0.0415 | 0.0655 | 0.0574 |  | 0.063 | 0.0565 | 0.0583 |  | 0.138 |  |  | 0.0592 | 
